Earlier results on 34 sequences are cited in PMC11006913.

The other results are listed elsewhere or left out.

What all share (conditions): PBM; conditions not shown; double strand, one strand shown; scale: upbm affinity estimate (log intensity, higher = more binding, comparable within an allelic series)
Series [1] deals with HOXD13 I297V (Homo sapiens) (UniProt P35453).
The target of series [2] is HOXD13 I322L (Homo sapiens) (UniProt P35453).
The target in series [3] is HOXD13 N298S (Homo sapiens) (UniProt P35453).
The target of series [4] is HOXD13 Q325K (Homo sapiens) (UniProt P35453).
For series [5], the target named is HOXD13 Q325R (Homo sapiens) (UniProt P35453).
In series [6] the target is HOXD13 R306W (Homo sapiens) (UniProt P35453).
For series [7], the target named is HOXD13 S316C (Homo sapiens) (UniProt P35453).

With GTGTATTA [8-mer GTGTATTA], the binding signal is 11.2 in series [1]; 10.9 in series [2]; 11.4 in series [3]; 11.6 in series [4]; 11.8 in series [5]; 10.8 in series [6]. For the same sequence, the binding signal in series [7] was 11.1.

With CAGTCGCA [8-mer CAGTCGCA], the binding signal is 9.51 in series [1]; 9.43 in series [2]; 9.49 in series [3]; 9.65 in series [4]; 9.6 in series [5]; 9.53 in series [6]. The binding signal in series [7] was 9.52.

As to AGCCCGGG [8-mer AGCCCGGG], the binding signal in series [1] is 9.5; in series [2], 9.53; in series [3], 9.54; in series [4], 9.67; in series [5], 9.51; in series [6], 9.47. Also, in series [7], the binding signal is 9.55.

For CCATAAAA [8-mer CCATAAAA], the binding signal was 12.8 in series [1]; 11.6 in series [2]; 13.1 in series [3]; 10.6 in series [4]; 11.4 in series [5]; 12.2 in series [6]. Further, the binding signal in series [7] is 12.7.

For ATTAATAG [8-mer ATTAATAG], the binding signal in series [1] was 12.4; in series [2], 11.6; in series [3] it was 12.6; in series [4], 11.6; in series [5], 11.8; in series [6] it was 11.9. In series [7], the binding signal was 12.2.

Turning to GACCGAGC [8-mer GACCGAGC], the binding signal in series [1] is 9.43; in series [2], 9.53; in series [3], 9.48; in series [4] it was 9.44; in series [5] it was 9.42; in series [6] it was 9.43. Further, in series [7], the binding signal is 9.54.

For ATCGTAAA [8-mer ATCGTAAA], the binding signal was 12.4 in series [1]; 12.5 in series [2]; 12.6 in series [3]; 10.5 in series [4]; 11 in series [5]; 11.4 in series [6]. In series [7], the binding signal is 12.3.

As to CGGAGGGA [8-mer CGGAGGGA], the binding signal in series [1] is 9.35; in series [2] it was 9.17; in series [3] it was 9.27; in series [4], 9.45; in series [5], 9.4; in series [6], 9.41. In addition, the binding signal in series [7] was 9.37.

In the case of CCACCGGG [8-mer CCACCGGG], the binding signal was 9.5 in series [1]; 9.43 in series [2]; 9.47 in series [3]; 9.67 in series [4]; 9.45 in series [5]; 9.46 in series [6]. Also, the binding signal in series [7] is 9.54.

In the case of CCTCCCAC [8-mer CCTCCCAC], the binding signal in series [1] was 9.31; in series [2] it was 9.42; in series [3], 9.4; in series [4], 9.5; in series [5], 9.55; in series [6], 9.6. The binding signal in series [7] was 9.48.

As to ATATGAAA [8-mer ATATGAAA], the binding signal was 11.3 in series [1]; 10.8 in series [2]; 11.6 in series [3]; 11 in series [4]; 11.2 in series [5]; 10.8 in series [6]. For the same sequence, the binding signal in series [7] is 11.2.

Take GTTGTAAA [8-mer GTTGTAAA]: the binding signal in series [1] was 12.3; in series [2] it was 12.4; in series [3], 12.4; in series [4] it was 10.7; in series [5], 10.9; in series [6] it was 11.1. Besides, the binding signal in series [7] is 12.1.

In the case of GCTCGTAA [8-mer GCTCGTAA], the binding signal is 12.4 in series [1]; 12.6 in series [2]; 12.7 in series [3]; 10.2 in series [4]; 11.1 in series [5]; 11.3 in series [6]. Besides, the binding signal in series [7] is 12.3.

For the sequence GACCCTGC [8-mer GACCCTGC], the binding signal in series [1] is 9.33; in series [2] it was 9.29; in series [3], 9.29; in series [4], 9.71; in series [5], 9.53; in series [6], 9.37. In series [7], the binding signal is 9.49.

For CTTGTAAA [8-mer CTTGTAAA], the binding signal in series [1] was 12.9; in series [2], 12.9; in series [3], 13; in series [4], 10.2; in series [5], 11.5; in series [6], 12. Moreover, the binding signal in series [7] is 12.8.

Turning to GCTGCTCC [8-mer GCTGCTCC], the binding signal in series [1] was 9.47; in series [2], 9.44; in series [3], 9.36; in series [4], 9.35; in series [5], 9.29; in series [6], 9.43. For the same sequence, the binding signal in series [7] is 9.42.

On to ATTTAATG [8-mer ATTTAATG], for which the binding signal in series [1] was 12.3; in series [2] it was 12; in series [3], 12.5; in series [4], 11.4; in series [5] it was 11.7; in series [6], 11.7. Also, the binding signal in series [7] was 12.2.

For CGCCGAAG [8-mer CGCCGAAG], the binding signal in series [1] is 9.44; in series [2], 9.33; in series [3], 9.2; in series [4] it was 9.49; in series [5], 9.28; in series [6], 9.46. In addition, the binding signal in series [7] was 9.38.

With TATAACAA [8-mer TATAACAA], the binding signal is 11.5 in series [1]; 11.4 in series [2]; 11.8 in series [3]; 11.4 in series [4]; 11.4 in series [5]; 10.9 in series [6]. For the same sequence, the binding signal in series [7] was 11.4.

As to TCCTATAA [8-mer TCCTATAA], the binding signal in series [1] was 11.9; in series [2], 11; in series [3] it was 12; in series [4] it was 11.1; in series [5] it was 11.2; in series [6] it was 11.2. The binding signal in series [7] was 11.8.

On to CGCCCCAG [8-mer CGCCCCAG], for which the binding signal in series [1] is 9.32; in series [2], 9.25; in series [3], 9.37; in series [4], 9.45; in series [5], 9.45; in series [6] it was 9.32. In series [7], the binding signal was 9.22.

Turning to ACCGTAAA [8-mer ACCGTAAA], the binding signal in series [1] is 11.9; in series [2], 12; in series [3], 12.1; in series [4], 10.4; in series [5], 10.7; in series [6], 10.8. The binding signal in series [7] was 11.7.

With GCGTGCGA [8-mer GCGTGCGA], the binding signal is 9.49 in series [1]; 9.58 in series [2]; 9.44 in series [3]; 9.57 in series [4]; 9.47 in series [5]; 9.46 in series [6]. In addition, the binding signal in series [7] was 9.45.

As for ACGGTCCC [8-mer ACGGTCCC], the binding signal was 9.37 in series [1]; 9.34 in series [2]; 9.25 in series [3]; 9.28 in series [4]; 9.39 in series [5]; 9.27 in series [6]. Also, the binding signal in series [7] was 9.37.

In the case of CCCTCCGG [8-mer CCCTCCGG], the binding signal in series [1] was 9.25; in series [2] it was 9.2; in series [3], 8.96; in series [4], 9.59; in series [5] it was 9.3; in series [6], 9.24. In addition, the binding signal in series [7] is 9.14.

Consider CCTCATAA [8-mer CCTCATAA], for which the binding signal was 12.1 in series [1]; 10.9 in series [2]; 12.4 in series [3]; 10.7 in series [4]; 11.7 in series [5]; 11.1 in series [6]. In addition, the binding signal in series [7] was 11.9.

With CAATAAAA [8-mer CAATAAAA], the binding signal is 13 in series [1]; 11.6 in series [2]; 13.2 in series [3]; 10.8 in series [4]; 12.1 in series [5]; 12.6 in series [6]. Further, the binding signal in series [7] is 13.

Turning to CCATAAAC [8-mer CCATAAAC], the binding signal was 12.6 in series [1]; 11.4 in series [2]; 12.8 in series [3]; 10.4 in series [4]; 11 in series [5]; 11.7 in series [6]. For the same sequence, the binding signal in series [7] was 12.5.

Turning to ATTTATTA [8-mer ATTTATTA], the binding signal in series [1] is 12.7; in series [2] it was 11.7; in series [3], 12.9; in series [4], 11.5; in series [5], 12.4; in series [6], 12.1. The binding signal in series [7] is 12.7.

In the case of TTTATAAA [8-mer TTTATAAA], the binding signal was 11.6 in series [1]; 10.9 in series [2]; 11.7 in series [3]; 12 in series [4]; 11.3 in series [5]; 11.3 in series [6]. Also, the binding signal in series [7] is 11.4.

CTCCGCCA [8-mer CTCCGCCA]: the binding signal was 9.41 in series [1]; 9.26 in series [2]; 9.37 in series [3]; 9.37 in series [4]; 9.31 in series [5]; 9.41 in series [6]. In addition, the binding signal in series [7] was 9.42.

For the sequence TCTATAAA [8-mer TCTATAAA], the binding signal is 12.6 in series [1]; 11.5 in series [2]; 12.8 in series [3]; 11.4 in series [4]; 11.5 in series [5]; 12.2 in series [6]. Further, in series [7], the binding signal was 12.6.

In the case of CGGCGCCG [8-mer CGGCGCCG], the binding signal in series [1] is 9.55; in series [2], 9.53; in series [3], 9.48; in series [4], 9.26; in series [5], 9.38; in series [6], 9.47. For the same sequence, the binding signal in series [7] was 9.56.

For AGGTCAGG [8-mer AGGTCAGG], the binding signal in series [1] was 9.4; in series [2], 9.49; in series [3], 9.46; in series [4], 9.49; in series [5], 9.4; in series [6], 9.42. In series [7], the binding signal is 9.41.
